PubChem BioAssay AID602310 (National Center for Advancing Translational Sciences (NCATS), 2012)
About 310 (0.076%) of roughly 410,000 compounds were called active. The shares of active, inactive and inconclusive entries below differ from those in the screen. Calls follow the shape of the dose curve; as a rule, active = well fitted curve in the direction sought with a large enough effect; inconclusive = small, poorly fitted or top-dose-only effect; inactive = flat fitted curve, though single readings scatter. A potency beside an inconclusive call is a rough fit, not a confirmed value.

Target: DNA dC->dU-editing enzyme APOBEC-3G (Homo sapiens) (UniProt Q9HC16)
Test: qHTS for Inhibitors of Vif-A3G Interactions: qHTS; also: nearly all actives have a fitted effect of over 60% in size;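 as to activity, negative = active: hits raise eYFP signal because A3G escapes Vif-driven loss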
Settings: HeLa A3G-eYFP + Vif (tagged APOBEC3G with the HIV-1 protein that degrades it), YFP fluorescence, overnight; series mostly up to 46.1 µM; activity, negative = active: at the top concentration
Summary of the method: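 HeLa cells stably expressing Vif and C-terminally eYFP-tagged A3G, seeded overnight at 37 deg C, then exposed to compound by pintool overnight at 37 deg C. Rise in yellow fluorescence (Ex 488/Em 500-530, Acumen) marks blocked Vif-driven A3G degradation.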
% is scaled to controls: 0 for no effect and ±100 for the full control effect; potency is read from the fitted curve at half-maximal effect; tags tell the direction and shape of the fitted curve.

Sequence of UniProt Q9HC16 (Q9HC16 whole entry, looked up): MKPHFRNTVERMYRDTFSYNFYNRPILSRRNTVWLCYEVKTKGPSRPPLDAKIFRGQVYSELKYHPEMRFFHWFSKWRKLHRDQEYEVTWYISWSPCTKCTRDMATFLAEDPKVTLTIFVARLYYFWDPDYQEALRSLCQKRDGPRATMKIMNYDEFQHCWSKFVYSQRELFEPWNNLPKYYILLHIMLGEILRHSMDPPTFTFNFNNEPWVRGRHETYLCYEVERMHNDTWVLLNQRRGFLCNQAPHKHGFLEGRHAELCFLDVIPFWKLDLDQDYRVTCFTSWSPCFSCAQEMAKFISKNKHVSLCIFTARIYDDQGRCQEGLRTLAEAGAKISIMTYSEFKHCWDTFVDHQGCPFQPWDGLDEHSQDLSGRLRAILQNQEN

Compound | activity, negative = active | Potency
O=C(N/N=C\C=C\c1ccco1)c1cc(-c2ccc3ccccc3c2)n[nH]1 | inactive: -3.97% | 
COc1cc(-c2cc(-c3ccc(O)cc3)nc(N)c2C#N)ccc1O |  | inconclusive: 35.5 µM [inhibitor, single point]
COc1ccc(-c2cc(C(F)(F)F)nc(N3CCCCCC3)n2)cc1 | inactive: -0.578% | 
CCCC(=O)N1CCN(c2ccc(NC(=O)c3ccc([N+](=O)[O-])o3)cc2Cl)CC1 |  | inconclusive: 3.16 µM [inhibitor, single point]
COc1cccc2cc(-c3nc4ccc(C)cc4[nH]3)c(=O)oc12 | inactive: 1.43% | 
CN1CCN(c2ccc([N+](=O)[O-])cc2C(=O)c2ccccc2)CC1 |  | inconclusive: 15.8 µM [inhibitor, single point]
Cc1ccc(C=NNC(=O)c2cc(-c3cccnc3)nc3ccccc23)o1 |  | inconclusive: 4.47 µM [inhibitor, full curve]
Cc1ccc(S(=O)(=O)N(CC(O)CN(C)C)c2ccccc2)cc1 (stereo not drawn) | inactive: -0.273% | 
COc1ccccc1NS(=O)(=O)c1cc([N+](=O)[O-])ccc1N/N=C/c1sc(N2CCOCC2)nc1-c1ccccc1 |  | inconclusive: 1.58 µM [inhibitor, full curve, poor fit]
Cc1cc(C(=O)N/N=C/c2ccc(N(C)C)cc2)c2ccccc2n1 |  | inconclusive: 4.47 µM [inhibitor, full curve]
Cc1cc2ccccn2c1C(=O)c1ccc([N+](=O)[O-])o1 |  | inconclusive: 8.91 µM [inhibitor, partial curve]
CCC(C)n1c(=N)c(C(=O)NCc2ccco2)cc2c(=O)n3cc(C)ccc3nc21 (stereo not drawn) | inactive: -0.165% | 
COc1cccc(-c2nn(C)c3sc(C(=O)NCCCN(C)Cc4ccccc4)cc23)c1 | inactive: 1.54% | 
COc1ccc([C@@H]2[C@@H]3C(=O)N(C(C)(C)C)C(=O)[C@@H]3[C@]3(Cc4ccccc4)C(=O)N(c4cccc(Cl)c4)C(=O)N23)cc1 | inactive: -6.79% | 
COc1ccc(-n2c(=O)c3ccccc3n(CC(=O)NC3CCCC3)c2=O)cc1 | inactive: 0.617% | 
COc1cc(C(=O)N2CCN(c3cccc(C)c3C)CC2)cc(OC)c1OC |  | inconclusive: 1.58 µM [inhibitor, partial curve, poor fit]
C/C(CC(=O)Nc1cc(C)ccn1)=N\NC(=O)c1ccccc1C | inactive: -8.45% | 
O=S(=O)(N/N=C/c1ccccc1OCc1ccc(Cl)cc1)c1ccccc1 |  | inconclusive: 35.5 µM [inhibitor, single point]
COc1cc(C2C(C(=O)Nc3ccccc3C)=C(C)Nc3nc(SCc4cc(C)ccc4C)nn32)ccc1O (stereo not drawn) |  | inconclusive: 12.6 µM [inhibitor, partial curve]
COc1cc2c(cc1OC)C(c1cc(Br)ccc1F)N(C(=O)CCl)CC2 (stereo not drawn) |  | inconclusive: 20 µM [inhibitor, single point]
CCOC(=O)/C=c1\s/c(=C\c2ccccc2C)c(=O)n1CC(=O)NCc1ccc2c(c1)OCO2 |  | inconclusive: 7.08 µM [inhibitor, partial curve, poor fit]
O=C(c1nn2c(C(F)(F)F)cc(-c3cccs3)nc2c1Br)N1CCCc2ccccc21 |  | inconclusive: 2.82 µM [inhibitor, partial curve, poor fit]
C=CS(=O)(=O)c1c2cc(OC)ccc2nc2ccc(OC)cc12 |  | inconclusive: 6.31 µM [inhibitor, full curve]

Compound | activity, negative = active | Potency
COc1ccc(C(C)C)cc1S(=O)(=O)n1cnc(C)c1 |  | inconclusive: 20 µM [inhibitor, single point]
O=C1C=C(NCc2ccccc2)c2ccccc2C1=O |  | inconclusive: 35.5 µM [inhibitor, single point]
CSc1nsc(/C=C/Nc2ccc(O)cc2C)c1C#N |  | inconclusive: 12.6 µM [inhibitor, partial curve, poor fit]
CCC(=O)Oc1ccc2c(c1)O/C(=C\c1ccco1)C2=O | inactive: -8.94% | 
COc1ccc(N=Cc2oc3ccc4ccccc4c3c2O)cc1 |  | active: 8.91 µM
Fc1ccc(-c2cc3nc(-c4ccccc4)cc(N4CCN(CCN5CCOCC5)CC4)n3n2)cc1 | inactive: 5.08% | 
Cc1ccc(C(=O)N/N=C/c2ccc(-c3cccc(Cl)c3)o2)cn1 |  | inconclusive: 11.2 µM [inhibitor, partial curve]
COc1cc(NC(=S)N2CCC(C(O)(c3ccccc3)c3ccccc3)CC2)cc(OC)c1 | inactive: 1.92% | 
CCCN1CCC(=NNc2ccc(S(=O)(=O)N3CCOCC3)cc2[N+](=O)[O-])CC1 |  | inconclusive: 8.91 µM [inhibitor, partial curve]
Cn1c(SCC(=O)N/N=C/C=C\c2ccco2)nc2ccccc21 | inactive: -5.11% | 
Cc1ccc(NC(=O)CSc2nc(N)c3cc4c(nc3n2)CCCC4)cc1 |  | inconclusive: 22.4 µM [inhibitor, single point]
COc1cc(NC(=O)COc2ccccc2[N+](=O)[O-])ccc1NC(=O)c1cccs1 |  | inconclusive: 6.31 µM [inhibitor, single point]
Cc1ccc(C(=O)Nc2cccc(C(=O)N/N=C/c3ccc(O)cc3)c2)cc1 |  | inconclusive: 35.5 µM [inhibitor, single point]
CCOC(=O)N1CCc2cc(OC)c(OC)c3c2c1cc1cc(OC)c(OC)cc13 |  | inconclusive: 2.82 µM [inhibitor, full curve]
O=[N+]([O-])c1ccccc1C1Nc2cccc3cccc(c23)N1 |  | inconclusive: 3.16 µM [inhibitor, single point]
Cc1cccc(NC(=O)NNC(=O)c2cc(-c3ccccc3Cl)nc3ccccc23)c1 |  | inconclusive: 28.2 µM [inhibitor, single point]
CC1(C)CC(=O)c2sc(NC(=O)CCS(=O)(=O)c3ccccc3)nc2C1 |  | inconclusive: 15.8 µM [inhibitor, single point]
Cc1ccc(C(=O)Cn2nnc(-c3cccs3)n2)cc1 | inactive: 1.8% | 
Nc1c(C(=O)O)sc2nc(-c3ccccc3)cc(-c3ccccc3)c12 |  | inconclusive: 15.8 µM [inhibitor, single point]
N#CC1=C(N)Oc2cc(N)ccc2C1c1ccc(F)cc1 (stereo not drawn) |  | inconclusive: 14.1 µM [inhibitor, single point]
O=C(CNC(=O)c1ccc(S(=O)(=O)N2CCCCC2)cc1)N/N=C/c1ccco1 |  | inconclusive: 20 µM [inhibitor, single point]
O=C(NCc1ccc(F)cc1)C(=O)NCC1CCCN1S(=O)(=O)c1ccccc1 (stereo not drawn) | inactive: -3.41% | 
O=C(CC1OC(=O)c2ccccc21)Nc1ccccc1N1CCOCC1 (stereo not drawn) | inactive: 0.705% | 

Compound | activity, negative = active | Potency
COc1ccccc1/C=C/C=C1N=C(/C=C/c2ccc(Cl)cc2)OC/1=O | inactive: 0.157% | 
COc1ccccc1C1CC(=O)Nc2cc(C)c(C)cc21 (stereo not drawn) |  | inconclusive: 5.62 µM [inhibitor, full curve]
CCOC(=O)C1=C(CCl)NC(=O)NC1c1ccc2c(c1)OCO2 (stereo not drawn) |  | inconclusive: 35.5 µM [inhibitor, single point]
O=C(CNC(=O)c1ccc(Br)o1)NCc1ccc(Cl)cc1 |  | inconclusive: 35.5 µM [inhibitor, single point]
CCCCCCCNc1ccc(/C=C/c2ccnc3ccccc23)cc1 |  | inconclusive: 17.8 µM [inhibitor, partial curve, poor fit]
CSc1ccc(CNC(=O)Cc2ccc(NC(=O)C3=C(C)OCCS3)cc2)cc1 |  | inconclusive: 3.55 µM [inhibitor, full curve, poor fit]
COc1cccc(C2Nc3ccc4ccccc4c3C3=C2C(=O)CCC3)c1O (stereo not drawn) |  | inconclusive: 10 µM [inhibitor, partial curve]
CCOC(=O)c1c(-c2cc(OC)c(OC)c(OC)c2)csc1N |  | inconclusive: 12.6 µM [inhibitor, partial curve, poor fit]
COc1ccc(-c2nc(N)ncc2-c2ccc(OC)c(OC)c2)c(O)c1 |  | inconclusive: 31.6 µM [inhibitor, single point]
CC(=O)Nc1cccc(-c2ccnc3c2CC(C)(C(=O)NCC2CC2)O3)c1 (stereo not drawn) |  | inconclusive: 6.31 µM [inhibitor, partial curve, poor fit]
CC1CN(CCS(=O)(=O)c2cc(Cl)ccc2Cl)CC(C)O1 (stereo not drawn) |  | inconclusive: 20 µM [inhibitor, single point]
Nc1nonc1-c1nc2ccccc2n1Cc1ccccc1 |  | inconclusive: 35.5 µM [inhibitor, single point]
Oc1[nH]c(=S)sc1/C=C1\C(c2ccccc2)=Nc2ccccc21 |  | inconclusive: 11.2 µM [inhibitor, partial curve]
COc1ccc(C(=O)N/C(=C\c2ccco2)C(=O)NCCCn2ccnc2)cc1 |  | inconclusive: 5.01 µM [inhibitor, single point]
O=C(O)C#CC(=O)O | inactive: -2.64% | 
O=C(N/N=C/c1ccc([N+](=O)[O-])s1)c1ccccc1 | inactive: -7.46% | 
Fc1ccc(COc2ccccc2C(=S)N2CCCC2)cc1 | inactive: 0.169% | 
Nc1nc(SCc2ccc3c(c2)OCCO3)n[nH]1 | inactive: -0.919% | 
O=C(/C(=C(\[O-])c1ccccc1)[n+]1ccc2ccccc2c1)c1ccccc1 |  | inconclusive: 20 µM [inhibitor, partial curve, poor fit]
O=c1cnc2ccccc2n1Cc1ccc(Br)cc1 |  | inconclusive: 20 µM [inhibitor, single point]
CC(=O)[C@]1(O)Cc2c(O)c3c(c(O)c2[C@@H](O[C@H]2C[C@H](N)[C@H](O)[C@H](C)O2)C1)C(=O)c1ccccc1C3=O |  | inconclusive: 3.16 µM [inhibitor, partial curve, poor fit]
COc1ccc(OCc2cc(/C=N\NC(=O)c3ccccc3)ccc2OC)cc1 |  | inconclusive: 7.08 µM [inhibitor, full curve, poor fit]
